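Assay format: 96-well plates, 48-hour exposure. GI50 is the concentration that inhibits growth by half. TGI marks complete inhibition of growth.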
Test system: NCI-H322M lung
Test: NCI anticancer screen, dose series, 48 h

SMILES	GI50 [µM]	TGI [µM]
Cc1ccc(C2=NN(c3ccc(S(N)(=O)=O)cc3)C(c3cn(-c4ccccc4)nc3-c3ccccc3)C2)cc1 (centres undefined)	> 100	> 100
COc1ccc(C)cc1Nc1nnc(-c2ccc(N)cc2)s1	–	> 100
O=S(=O)(Nc1ccccn1)c1ccc(N=Nc2ccc(O)c3ncccc23)cc1	1.76	8.84
O=C(O)C1=NN(c2ccc(S(=O)(=O)O)cc2)C2(C1)SCC(=O)N2c1nc2ccccc2s1 (centres undefined)	–	> 100
COc1ccc2nc3ccccc3c(NCc3ccc(C)cc3)c2c1	2.07	5.3
Cc1ccc(C2SCC(=O)N2NC(=O)c2ccncc2)s1 (centres undefined)	–	> 100
Clc1ccc2c(NCCNc3nc(N4CCCC4)nc4ccccc34)ccnc2c1	1.55	3.88
C=C(C)[C@@H]1CC[C@]2(C(N)=O)CC[C@]3(C)[C@H](CC[C@@H]4[C@@]5(C)C/C(=C/c6cccnc6)[C@H](O)C(C)(C)[C@@H]5CC[C@]43C)[C@@H]12	6.37	> 100
COc1ccc(C2S/C(=C\c3ccccc3)C(=O)N2NC(=O)Cc2ccccc2)cc1 (centres undefined)	–	> 100
Nc1nc(=Nc2ccccc2)ss1	–	> 100
CCCCCC/C=C1\CCC(CN(C)C)C1=O (centres undefined)	–	32.2
N#C[S-].[Ce+3].c1cnc2c(c1)ccc1cccnc12.c1cnc2c(c1)ccc1cccnc12.c1cnc2c(c1)ccc1cccnc12	–	15.2
O=C(c1ccccc1)C1C[C@H]2CO[C@H](c3ccccc3)N2C1=O (some centres undefined)	–	> 100
O=C(COc1ccc(Cl)cc1Cl)N/N=C/C=C/c1ccc([N+](=O)[O-])o1	–	> 100
O=C(O)[C@@H](NS(=O)(=O)c1ccc([N+](=O)[O-])cc1)c1ccccc1	–	> 100
Cn1c(=O)n2n(c1=O)[C@@H](c1ccccc1)[C@H]2c1ccccc1	–	> 100
CCOC(=O)c1cc(C#N)[nH]c1-c1ccsc1	–	> 100
COc1ccc(-n2sc3ncc([N+](=O)[O-])cc3c2=O)cc1	–	> 100
Cc1ccc(S(=O)(=O)Nn2c(O)c(C#N)c(-c3ccc(N(C)C)cc3)c(C#N)c2=O)cc1	–	> 50
CCOC(=O)c1cc2cc(C)cc(C(=O)c3ccc([N+](=O)[O-])cc3)c2[nH]1	–	> 100
Cn1sc2ccccc2c1=S	–	> 62.1
CC1=CC(=O)/C(=C/n2c(=S)[nH]c3ccc([N+](=O)[O-])cc32)C(=O)O1	–	> 100
O=C(Cc1ccccc1)NS(=O)(=O)c1ccccc1	–	> 100
COc1ccc(C(SCC(N)C(=O)O)(c2ccc(OC)cc2)c2ccc(OC)cc2)cc1 (centres undefined)	–	24.8
COC(=O)[C@H](COC(=O)/C=C/c1ccc(OC(C)=O)c(OC(C)=O)c1)NC(=O)/C=C/c1ccc(OC(C)=O)c(OC(C)=O)c1	–	36.8

SMILES	GI50 [µM]	TGI [µM]
CCOC(=O)C(C(=O)OCC)=c1sc(=C(C(=O)OCC)C(=O)OCC)s1	–	> 100
CC1=CC(=O)c2ccc(C)cc2C1=O	–	32.1
Cc1cc(N(CCOS(C)(=O)=O)CCOS(C)(=O)=O)ccc1C=Nc1ccc(-c2csc(-c3ccc(Br)cc3)n2)cc1	–	30.7
COc1ccc(N=CN(C)C)c(C)c1	–	> 100
CCCc1c(C(=O)OCC)[nH]c(C(=O)CCC(=O)c2[nH]c(C(=O)OCC)c(CCC)c2C(=O)OCC)c1C(=O)OCC	–	> 100
c1ccc2c3c(ccc2c1)-c1c(ccc2c(NCCCCN4CCCCC4)cccc12)C3	–	2.89
O=C(NNC(=O)c1nsc2ccccc12)c1ccc(Cl)cc1	–	46.2
COc1ccccc1NC(=O)C(CC(C(=O)Nc1ccccc1OC)/C(C)=N/NC(=O)c1ccccc1O)/C(C)=N/NC(=O)c1ccccc1O (centres undefined)	–	> 100
C[C@@H]1OCC2(CCN(c3cnc(Sc4ccnc(N)c4Cl)c(N)n3)CC2)[C@@H]1N	0.329	> 100
COc1cc2c(cc1OC)-c1cc3ccc(OC)c(OC)c3c[n+]1CC2	–	> 100
COc1ccc(C(c2cc3c(cc2O)OCO3)N2CCOCC2)cc1OC (centres undefined)	–	34.7
CCn1c2ccccc2c2cc(NC(=O)c3c(NCCNCCO)nc(=O)[nH]c3C)ccc21	–	> 100
NC(CC(=O)O)(Cc1ccccc1)C(=O)O (centres undefined)	–	> 100
COC1CC(OC)C(O)C(CO)O1 (centres undefined)	–	> 100
N#CC1(C#N)C(c2ccccc2)C=CC(c2ccc([N+](=O)[O-])cc2)C1(C#N)C#N (centres undefined)	–	34.9
Cc1nc2sc(C(=O)Nc3cccc(Br)c3)c(N)c2cc1C(O)c1ccccc1 (centres undefined)	2.77	18.9
Cc1c(-c2nnc(-c3cc(Cl)c(Cl)cc3Cl)o2)nnn1-c1ccnc2c(C(F)(F)F)cccc12	34.4	> 100
C=C(CN)CO[Si](C)(C)C(C)(C)C	–	> 100
C[C@]12CCC(=O)C=C1CC[C@@H]1[C@@H]2[C@@H](O)C[C@@]2(C)[C@H]1CC[C@]2(O)C(=O)COC(=O)C1CCCC1	–	> 100
CC(C)c1ccc2nc3ccc(C(=O)NCCN4CCN(c5ccccc5)CC4)cn3c(=O)c2c1	–	> 100
Clc1ccc(-c2nnc(-c3c(Cl)c(Cl)c(Cl)c(Cl)c3-c3nc4ccccc4[nH]3)o2)cc1	–	> 100
CC1=C[C@@H]2[C@@H](CC(CO)=C[C@H]3[C@@H]4C(C)(C)[C@]4(OCC(C)C)[C@H](OCC(C)C)[C@@H](C)[C@]23O)C1=O	–	> 8.32
COc1cnc2c(c1)C(=O)c1c-2n(CCCNC(C)C)c(=O)c2cc([N+](=O)[O-])ccc12	0.0546	0.668
CCOCCOC[C@H]1CCCN(c2ccnc3sc(C(N)=O)c(N)c23)C1	> 100	> 100

Reference: PubChem BioAssay (NCI)
